Among all 310,000 compounds or so, about 14,000 (4.5%) showed an effect of 50% or more. Effects have a minus sign here. The list shows a part of the results.
Each compound was assayed against human ether-à-go-go-related gene (hERG) potassium channel (human, UniProt Q12809) (assay: primary screen, population patch clamp on CHO cells stably expressing hERG).
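Note: peak tail current of the secondary pulse compared with the same well before compound.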

Chain of human ether-à-go-go-related gene (hERG) potassium channel (Q12809 whole entry, looked up): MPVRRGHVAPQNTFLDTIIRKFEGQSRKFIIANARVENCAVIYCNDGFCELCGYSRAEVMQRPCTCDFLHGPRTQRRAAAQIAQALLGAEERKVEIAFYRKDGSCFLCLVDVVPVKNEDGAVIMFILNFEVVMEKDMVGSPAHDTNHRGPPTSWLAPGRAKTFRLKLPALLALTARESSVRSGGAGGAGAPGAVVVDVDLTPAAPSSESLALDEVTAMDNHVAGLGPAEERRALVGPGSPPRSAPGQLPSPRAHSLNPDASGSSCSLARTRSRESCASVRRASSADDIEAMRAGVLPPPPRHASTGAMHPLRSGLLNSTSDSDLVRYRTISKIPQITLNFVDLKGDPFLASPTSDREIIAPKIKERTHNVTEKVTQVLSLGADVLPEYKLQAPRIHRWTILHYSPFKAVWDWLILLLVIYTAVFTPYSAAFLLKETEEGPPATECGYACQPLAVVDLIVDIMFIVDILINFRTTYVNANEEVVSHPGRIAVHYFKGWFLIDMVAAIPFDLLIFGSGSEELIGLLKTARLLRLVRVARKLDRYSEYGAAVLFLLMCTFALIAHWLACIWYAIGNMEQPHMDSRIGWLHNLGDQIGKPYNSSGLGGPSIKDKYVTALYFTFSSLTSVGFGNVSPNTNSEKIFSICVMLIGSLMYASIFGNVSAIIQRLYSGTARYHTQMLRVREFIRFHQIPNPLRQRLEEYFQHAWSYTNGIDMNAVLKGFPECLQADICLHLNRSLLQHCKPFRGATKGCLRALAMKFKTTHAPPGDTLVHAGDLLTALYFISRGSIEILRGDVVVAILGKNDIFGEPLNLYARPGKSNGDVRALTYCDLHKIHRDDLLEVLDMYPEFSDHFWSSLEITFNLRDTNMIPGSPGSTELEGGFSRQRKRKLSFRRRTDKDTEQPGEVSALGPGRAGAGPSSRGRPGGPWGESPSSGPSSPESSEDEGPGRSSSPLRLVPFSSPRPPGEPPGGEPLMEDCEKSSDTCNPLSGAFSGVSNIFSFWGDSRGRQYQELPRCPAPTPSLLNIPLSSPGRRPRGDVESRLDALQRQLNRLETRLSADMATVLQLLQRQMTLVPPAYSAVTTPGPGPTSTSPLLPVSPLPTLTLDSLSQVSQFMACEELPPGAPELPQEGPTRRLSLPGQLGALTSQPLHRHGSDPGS

Row | SMILES | hERG current change (%, negative = inhibition) at 10uM
1 | Cc1nonc1C1CCCN1C(=O)c1cc(COc2ccc(F)cc2F)on1 (stereo not drawn) | 9.53%
2 | Cc1cc(C)n(-c2ccc(C(=O)OCC(=O)c3c(N)n(C)c(=O)n(C)c3=O)cc2)n1 | -8.33%
3 | COC(=O)[C@@H]1CCCN1C(=O)c1cc(COc2cccc3cccnc23)on1 | 10.6%
4 | O=C(O)c1nn(CCOc2ccc(Cl)cc2Cl)c(=O)c2ccccc12 | 23.7%
5 | Cc1cccc(C2c3[nH]c4ccccc4c3CCN2C(=O)Cc2n[nH]c(C)n2)n1 (stereo not drawn) | 5.57%
6 | CC1(C)CC(C(CC(=O)O)c2ccccc2)CCO1 (stereo not drawn) | 28.9%
7 | Cc1cc(C(=O)OCc2nc3ccccc3s2)c(C)o1 | 3.9%
8 | O=C(Cc1nn[nH]n1)NCCC1=CCCCC1 | 6.92%
9 | N/N=C(\c1ccccc1)C12CN3CN(CN(C3)C1)C2 | 7.98%
10 | CC1(C)C(=O)OC(c2cccn2-c2ccc([N+](=O)[O-])cc2)C2(CCCCC2)C1=O (stereo not drawn) | 11.7%
11 | Cl.NS(=O)(=O)c1cccc(NC(=O)c2cc(-c3cccs3)nc3ccccc23)c1 | 8.4%
12 | NC(=O)N1CCC2(CC1)NC(=O)N(c1ccccc1)N2 | 11.9%
13 | CC1SCC(NC(=O)c2ccc(Cl)cc2)CS1 (stereo not drawn) | -0.992%
14 | CCOc1ccc(CN2CCN(CC(O)Cn3c4ccccc4c4ccccc43)CC2)cc1 (stereo not drawn) | -70.9%
15 | NS(=O)(=O)c1ccc(CNC(=O)/C=C/c2ccccc2)cc1 | 9.02%
16 | CCC(=O)Oc1ccc2ccccc2c1CNC(=O)c1ccccc1 | -16.7%
17 | CCOC(=O)c1[nH]c2ccccc2c1NC(=O)c1ccc(S(=O)(=O)N(C)C)cc1 | -0.44%
18 | COc1ccccc1-c1nc2n(n1)C(c1ccccc1Cl)C(C(N)=O)=C(C)N2 (stereo not drawn) | -5.7%
19 | Cc1nnc(C)n1/N=C/c1cccc([N+](=O)[O-])c1 | 7.89%
20 | CC1=C(C(=O)Nc2cccc(C(=O)N3CCC(C(N)=O)CC3)c2)SCCO1 | 20.1%
21 | CCCCN(C(=O)c1c(C)noc1C)c1c(N)n(CCCC)c(=O)[nH]c1=O | 8.77%
22 | CC(=O)NCc1ccc(-c2nc3ccccc3s2)cc1 | -9.06%

Row | SMILES | hERG current change (%, negative = inhibition) at 10uM
23 | CN1C(=O)[C@H]2[C@@H](/C=C/c3ccccc3)N3C(=O)CN(CCO)C(=O)[C@@]3(Cc3ccccc3)[C@H]2C1=O | 0.734%
24 | O=C(NC1CCCCC1)C(c1ccc2ncccc2c1)N(Cc1ccccc1)C(=O)c1ccc2c(c1)OCCO2 (stereo not drawn) | -29.4%
25 | COC(=O)c1ccc(-n2nnnc2SCC(=O)Nc2ccccc2F)cc1 | 16.2%
26 | COc1ccc(NC(=O)CSc2nc(C)cc(C)n2)cc1 | 5.07%
27 | CC(C)c1onc(C(=O)N2CCCCC2)c1[N+](=O)[O-] | 0.205%
28 | COc1ccc(NS(=O)(=O)c2ccc(O)c(C(=O)OCC(=O)Nc3ccc4c(c3)OCCO4)c2)cc1 | 21.3%
29 | CC(=O)c1ccc(C(=O)Nc2ccc3c(c2)C(=O)NC3=O)cc1 | 18%
30 | O=C(NC1CCCCC1)N(Cc1cc2cc3c(cc2[nH]c1=O)OCCO3)C1CCCCC1 | -10.7%
31 | CCCNC(=O)COC(=O)/C(C#N)=C/c1cc(C)n(CCC)c1C | 5.72%
32 | CNC(=O)c1sccc1Oc1ccc(F)cc1[N+](=O)[O-] | 20.5%
33 | COc1ccc(-c2ccoc2)cc1[C@H]1[C@H]2C=CC[C@@H](C)[C@@H]2C(=O)N1Cc1ccccc1 | 1.85%
34 | CCCCSc1nc(C)nc2c1c(=O)n(C)c(=O)n2C | 3.49%
35 | CN(c1ccccc1)S(=O)(=O)c1ccc(Cl)c(C(=O)Nc2ccc(N3CCOCC3)cc2)c1 | -18.3%
36 | C/C=C1/CN2C3CC1C(CO)(C(=O)OC)C2Cc1c3n(C)c2ccccc12 (stereo not drawn) | -10.6%
37 | COc1cc(OC)c(C(=O)N(CCc2ccccc2)Cc2ccccc2)cc1OC | -12.6%
38 | COc1ccc(OC)c(S(=O)(=O)N/N=C(/C)c2ccc3c(c2)OCO3)c1 | -4.29%
39 | CN(C)S(=O)(=O)c1cccc(NC(=O)COC(=O)c2cc(=O)[nH]c(=O)[nH]2)c1 | 12.3%
40 | CCCCCn1nc(C(=O)OCC(=O)c2c(N)n(C)c(=O)n(C)c2=O)c2ccccc2c1=O | -11.5%
41 | O=C(CSc1nnc(-c2ccccc2)n1-c1ccccc1)c1cccs1 | -12.6%
42 | O=C(/C=C/c1ccc2c(c1)OCO2)c1ccc(F)cc1 | 5.42%
43 | COc1ccc(-n2nc(C(=O)NCC(=O)NCCN(C)C)c3ccccc3c2=O)cc1 | 10.7%
44 | COc1cc(C)nc(N2CCC(C(=O)NCC3CCCO3)CC2)n1 (stereo not drawn) | 4.78%

Row | SMILES | hERG current change (%, negative = inhibition) at 10uM
45 | c1ccc2nc3c(cc2c1)CCCCC3 | -18.5%
46 | Cc1ccc(CCC(=O)Nc2ccc(C)c(C)c2)o1 | -24.7%
47 | COC(=O)CSC1=C(C#N)C(c2ccc(F)cc2)CC(=O)N1 (stereo not drawn) | 4.55%
48 | CCCCN1C(=O)NC(NC(C)=O)(C(F)(F)F)C1=O (stereo not drawn) | 5.89%
49 | CC1(C)Cc2c(cnn2-c2ccc(F)cc2)C(NC(=O)CCC(F)(F)F)C1 (stereo not drawn) | -42.8%
50 | O=C(NC1CC1)c1cccc(Oc2ccccc2)c1 | 1.52%
51 | O=C(CSc1nc(-c2ccco2)cc(C(F)(F)F)n1)Nc1ccc2c(c1)CCC2 | -2.88%
52 | CN1CCN(CCN2CCn3c2nc2ccccc23)CC1.Cl | -7.38%
53 | CCCCCn1cnnc1SCC(=O)c1ccc2c(c1)OCO2 | -27.9%
54 | COc1cc2c(cc1NC(=O)COC(=O)[C@@H](NS(=O)(=O)c1ccccc1)C(C)C)oc1ccccc12 | 7.66%
55 | COc1ccccc1CN1CCN(Cc2nc(Cc3ccccc3)no2)CC1 | -36%
56 | C=CCOC(=O)C1=C[C@H](c2cn(C(C)=O)c3ccccc23)C[C@H](OCCCCO)O1 | -38.7%
57 | COc1ccc(CNC(=O)C2CC(C)=C(C)CC2C(=O)O)cc1OC (stereo not drawn) | 21.1%
58 | COc1ccc2c(c1)C(=O)N1[C@H]3c4cc(C)ccc4OC[C@@H]3[C@H](c3ccccc3)[C@]1(C)C(=O)N2 | 5.97%
59 | Cc1ccccc1NCC(=O)c1ccc(Br)cc1 | 0.178%
60 | C=C(C)CNC(=S)NNC(=O)c1ccco1 | 17.6%
61 | COc1cc2c(cc1OC)CN(C(=O)C(CCSC)NS(=O)(=O)c1ccc(C)cc1)CC2 (stereo not drawn) | 10.7%
62 | Cc1ccc(/C=C2\SC(=S)N(C3CCS(=O)(=O)C3)C2=O)o1 (stereo not drawn) | -4.91%
63 | CN1CCN(C(=S)Nc2cccc(C(F)(F)F)c2)CC1 | -0.365%
64 | COc1cc(NC(=O)COC(=O)Cc2ccc(-c3ccccc3)cc2)cc(OC)c1 | 3.6%
65 | CC(C)(C)OC(=O)N1CCC(NC(=O)c2nc[nH]c2C(=O)NCC(=O)OCc2ccccc2)CC1 | -45.6%
66 | N#CCc1ccc(NS(=O)(=O)c2ccc(C3CCCCC3)cc2)cc1 | 6.06%

Row | SMILES | hERG current change (%, negative = inhibition) at 10uM
67 | Cc1ccc(CN2CCN(Cc3c[nH]c4ccccc34)CC2CCO)o1 (stereo not drawn) | -8.71%
68 | COc1ccc(C(=O)NC(C)Cn2nc(C)cc2C)cc1OC1CCN(C(C)=O)CC1 (stereo not drawn) | -4.23%
69 | COc1ccc(/C=C2\Cc3ccccc3C2=O)cc1OC | 14.1%
70 | COc1ccccc1OCC(O)COC(N)=O (stereo not drawn) | 10.3%
71 | CN1CCN(C(=O)CN(c2cc(C(F)(F)F)ccc2Cl)S(C)(=O)=O)CC1 | 15%
72 | Fc1cccc(F)c1-c1nc2c(s1)CCc1onc(-c3ccc(Br)cc3)c1-2 | 23.2%
73 | Cc1nn(Cc2ccccc2Cl)c(C)c1NC(=O)/C=C/c1cnn(C)c1 | 10.2%
74 | Cn1c(NCc2ccc(Cl)cc2)nc2ccccc21 | -49%
75 | COc1ccc(C(=O)Nc2c(N)nc[nH]c2=O)cc1 | 0.0988%
76 | COC(=O)C(C)Oc1ccc2c3c(c(=O)oc2c1)CCCCC3 (stereo not drawn) | -59.2%
77 | Cc1ccc(C(=O)Nc2ccc(C)c(S(=O)(=O)N3CCOCC3)c2)c(C)c1 | -51%
78 | Cc1ccc(-c2nnc(SCC(=O)N/N=C/c3ccc(C)s3)n2-c2ccccc2)cc1 | -9.42%
79 | CCOC(=O)c1cc(-c2cccnc2)nn1-c1ccccc1 | 9.52%
80 | O=C1CC(C(=O)N2CCc3ccccc32)CN1c1ccccc1 (stereo not drawn) | -6.98%
81 | CCOc1ccc(NC(=O)CC2C(=O)N(c3ccc(OC)cc3)C(=O)N2CCc2cccs2)cc1 (stereo not drawn) | -36.1%
82 | CCOC(=O)C1CCCN(S(=O)(=O)c2ccc(Br)c(OC)c2)C1 (stereo not drawn) | -14.3%
83 | O=C(NCc1ccc(F)cc1)c1cc(-c2ccncc2)nc2ccccc12 | -64.7%
84 | CCN1CCN(S(=O)(=O)c2cccc3nsnc23)CC1 | -5.57%
85 | CC(C)C(=O)N1CCC(CN=CC2=C(O)CC(C)(C)CC2=O)CC1 | 11.1%
86 | C/C(CC(=O)Nc1cccnc1)=N\NC(=O)C(=O)Nc1cccc(C)c1 | -24.7%
87 | O=C(NCc1cccs1)C1CCCN1C(=O)Nc1cccc(Cl)c1 (stereo not drawn) | 2.92%
